# From the supplement of paper PMC8728848
# The list shows a part of the results.
# Columns and labels:
# Experiment in all cases: glycan array binding signal (z-score within array); higher = stronger binding
# Conditions in all cases: glycan notation: IUPAC condensed, linker removed
# [1] = target: Gal6S(b1-4)Glc6S
# Summary of the method: (§1)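 Columns mapping to the same glycan were averaged after glycan names were converted to IUPAC-condensed notation. The data come from 3228 arrays in the Consortium for Functional Glycomics database, limited to those with an available protein sequence. Binding is reported as a within-array Z-score averaged across arrays of one protein sequence and across linkers.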
# [2] = target: Gal6S(b1-4)GlcNAc
# Summary of the method: as §1
# [3] = target: Gal6S(b1-4)GlcNAc6S
# Summary of the method: as §1
# [4] = target: GalNAc(a1-3)Gal
# Summary of the method: as §1
# [5] = target: GalNAc(a1-3)GalNAc
# Summary of the method: as §1
# [6] = target: GalNAc(a1-3)GalNAc(b1-3)Gal(a1-4)Gal(b1-4)Glc
# Summary of the method: as §1
# [7] = target: GalNAc(a1-3)GalNAc(b1-3)Gal(a1-4)Gal(b1-4)GlcNAc
# Summary of the method: as §1
# [8] = target: GalNAc(b1-3)Gal
# Summary of the method: as §1
# [9] = target: GalNAc(b1-3)Gal(a1-4)Gal(b1-4)GlcNAc
# Summary of the method: as §1
# [10] = target: GalNAc(b1-3)Gal(a1-4)Gal(b1-4)GlcNAc(b1-3)Gal(b1-4)Glc
# Summary of the method: as §1
# [11] = target: GalNAc(b1-3)Gal(a1-6)Gal(b1-4)Glc
# Summary of the method: as §1
# [12] = target: GalNAc(b1-3)GalNAc
# Summary of the method: as §1
# [13] = target: GalNAc(b1-3)GlcNAc
# Summary of the method: as §1
# [14] = target: GalNAc(b1-4)Gal(b1-4)Glc
# Summary of the method: as §1
# [15] = target: GalNAc(b1-4)GlcNAc
# Summary of the method: as §1
# [16] = target: GalNAc(b1-4)GlcNAc(b1-2)Man
# Summary of the method: as §1
# [17] = target: GalNAc(b1-4)GlcNAc(b1-2)Man(a1-3)[GalNAc(b1-4)GlcNAc(b1-2)Man(a1-6)]Man(b1-4)GlcNAc(b1-4)GlcNAc
# Summary of the method: as §1
# [18] = target: GalNAc(b1-4)GlcNAc(b1-3)GalNAc(b1-4)GlcNAc
# Summary of the method: as §1
# [19] = target: GalNAc(b1-4)GlcNAc6S
# Summary of the method: as §1
# [20] = target: GalNAc(b1-6)GalNAc
# Summary of the method: as §1
# [21] = target: GalNAc3S(b1-4)GlcNAc
# Summary of the method: as §1
# [22] = target: GalNAc3S(b1-4)GlcNAc3S
# Summary of the method: as §1
# [23] = target: GalNAc3S(b1-4)[Fuc(a1-3)]GlcNAc
# Summary of the method: as §1
# [24] = target: GalNAc4S6S(b1-4)GlcNAc
# Summary of the method: as §1
# [25] = target: GalNAc6S(b1-4)GlcNAc
# Summary of the method: as §1
# [26] = target: Glc(a1-4)Glc
# Summary of the method: as §1
# [27] = target: Glc(a1-4)Glc(a1-4)Glc(a1-4)Glc
# Summary of the method: as §1
# [28] = target: Glc(a1-6)Glc(a1-6)Glc
# Summary of the method: as §1
# [29] = target: Glc(a1-6)Glc(a1-6)Glc(a1-6)Glc
# Summary of the method: as §1
# [30] = target: Glc(b1-4)Glc
# Summary of the method: as §1
# [31] = target: Glc(b1-6)Glc
# Summary of the method: as §1
# [32] = target: GlcA(b1-3)Gal
# Summary of the method: as §1
# [33] = target: GlcA(b1-3)GlcNAc
# Summary of the method: as §1
# [34] = target: GlcA(b1-6)Gal
# Summary of the method: as §1
# [35] = target: GlcA3S(b1-3)Gal(b1-4)GlcNAc(b1-2)Man
# Summary of the method: as §1
# [36] = target: GlcA3S(b1-3)Gal(b1-4)GlcNAc(b1-3)Gal(b1-4)Glc
# Summary of the method: as §1
# [37] = target: GlcNAc(a1-3)Gal(b1-4)GlcNAc
# Summary of the method: as §1
binder,measurement,setting,value
SP16664D-bth-476-27-476 (Bacteroides thetaiotaomicron) (protein) DDLEVGKNIDESAYSGIYENNAYLRDGKSNLVSKVVELHGETYATTVKMGLSKTPNTATSAKVKIDAAYLETYNKAHNTDFALYPQDLVTFANEGILTVNANTKSAEVEMTIRAGEGLQEDKTYAIPVAISDQSSDITIKDEDAKHCIYLVKDMRNAGDAYKGEGVMQGYLFFEVNDVNPLNTLSFQLENGKLLWDVVVLFAANINYDAEAGRPRVQCNPNVQYLLDNNETLLQPLRRRGVKVLLGLLGNHDITGLAQLSEQGAKDFAREVAQYCKAYNLDGVNYDDEYSNSPDLSNPSLTNPSTAAAARLCYETKQAMPDKLVTVFDWGQMYGVATVDGVDAKEWIDIVVANYGSAAYPIGQMTKKQCSGISMEFNLGGGGSLSASKAQSMIDGGYGWFMGFAPSPAKYGSVFSRLQGGGEVLYGSNVAAPTIFYKKNDPTPYKYPDDL,glycan array binding signal (z-score),[1],0.344
same,glycan array binding signal (z-score),[2],0.594
same,glycan array binding signal (z-score),[3],-0.222
same,glycan array binding signal (z-score),[4],0.077
same,glycan array binding signal (z-score),[5],0.083
same,glycan array binding signal (z-score),[6],-0.045
same,glycan array binding signal (z-score),[7],-0.244
same,glycan array binding signal (z-score),[8],-0.159
same,glycan array binding signal (z-score),[9],-0.112
same,glycan array binding signal (z-score),[10],0.373
same,glycan array binding signal (z-score),[11],0.115
same,glycan array binding signal (z-score),[12],-0.012
same,glycan array binding signal (z-score),[13],0.226
same,glycan array binding signal (z-score),[14],-0.229
same,glycan array binding signal (z-score),[15],-0.075
same,glycan array binding signal (z-score),[16],-0.198
same,glycan array binding signal (z-score),[17],0.208
same,glycan array binding signal (z-score),[18],-0.199
same,glycan array binding signal (z-score),[19],-0.173
same,glycan array binding signal (z-score),[20],-0.205
same,glycan array binding signal (z-score),[21],-0.345
same,glycan array binding signal (z-score),[22],-0.281
same,glycan array binding signal (z-score),[23],-0.316
same,glycan array binding signal (z-score),[24],-0.07
same,glycan array binding signal (z-score),[25],-0.214
same,glycan array binding signal (z-score),[26],-0.065
same,glycan array binding signal (z-score),[27],-0.222
same,glycan array binding signal (z-score),[28],-0.198
same,glycan array binding signal (z-score),[29],-0.237
same,glycan array binding signal (z-score),[30],-0.002
same,glycan array binding signal (z-score),[31],0.288
same,glycan array binding signal (z-score),[32],-0.078
same,glycan array binding signal (z-score),[33],-0.153
same,glycan array binding signal (z-score),[34],0.117
same,glycan array binding signal (z-score),[35],-0.328
same,glycan array binding signal (z-score),[36],-0.373
same,glycan array binding signal (z-score),[37],-0.291
